The record followed here is paper PMC10320511.

Chains of the proteins cited; added tags and fusions are not shown.
UniProt Q01371: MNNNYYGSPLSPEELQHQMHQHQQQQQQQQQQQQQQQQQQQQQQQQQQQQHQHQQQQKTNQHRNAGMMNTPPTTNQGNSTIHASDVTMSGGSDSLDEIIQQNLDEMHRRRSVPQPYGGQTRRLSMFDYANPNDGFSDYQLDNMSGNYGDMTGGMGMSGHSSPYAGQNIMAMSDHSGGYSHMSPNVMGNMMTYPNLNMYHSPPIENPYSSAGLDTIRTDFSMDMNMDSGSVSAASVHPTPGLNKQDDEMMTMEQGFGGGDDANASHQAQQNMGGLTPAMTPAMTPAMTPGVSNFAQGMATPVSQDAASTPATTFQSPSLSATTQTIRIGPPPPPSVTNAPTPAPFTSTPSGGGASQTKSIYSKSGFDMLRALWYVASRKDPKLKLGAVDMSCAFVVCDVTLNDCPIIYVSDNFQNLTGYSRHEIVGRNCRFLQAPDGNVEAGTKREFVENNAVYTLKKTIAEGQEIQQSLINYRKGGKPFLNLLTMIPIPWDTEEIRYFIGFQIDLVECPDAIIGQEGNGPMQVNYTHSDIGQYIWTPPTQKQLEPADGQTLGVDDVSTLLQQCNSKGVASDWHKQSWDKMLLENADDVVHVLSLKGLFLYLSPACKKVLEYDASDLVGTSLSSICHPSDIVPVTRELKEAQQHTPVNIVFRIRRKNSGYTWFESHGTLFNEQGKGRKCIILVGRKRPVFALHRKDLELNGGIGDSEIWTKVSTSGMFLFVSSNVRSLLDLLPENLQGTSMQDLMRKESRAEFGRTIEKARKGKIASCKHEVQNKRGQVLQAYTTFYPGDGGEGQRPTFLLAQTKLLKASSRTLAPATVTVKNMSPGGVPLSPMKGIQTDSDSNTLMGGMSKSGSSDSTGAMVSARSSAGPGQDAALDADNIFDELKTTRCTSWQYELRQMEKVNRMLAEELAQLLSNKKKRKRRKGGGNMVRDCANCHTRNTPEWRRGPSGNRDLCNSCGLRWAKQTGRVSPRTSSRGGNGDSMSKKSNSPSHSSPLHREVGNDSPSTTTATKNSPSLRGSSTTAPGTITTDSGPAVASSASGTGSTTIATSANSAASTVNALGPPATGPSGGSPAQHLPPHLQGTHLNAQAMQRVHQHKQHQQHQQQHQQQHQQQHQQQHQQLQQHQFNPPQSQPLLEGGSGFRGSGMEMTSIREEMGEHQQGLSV

Assay [1] addresses White Collar-1 tagged with V5 (WC-1^V5) (Neurospora crassa) (UniProt Q01371). Description: co-IP; WC-1^V5 pulled down with V5 resin from Neurospora lysate; NaCl in lysis and wash buffers raised to 500 or 1000 mM; Western blot. In general terms: In western blotting, separated proteins are transferred to a membrane and probed.
Assay [2] shares this target. Description: co-IP; WC-1^V5 pulled down with V5 resin from Neurospora lysate (light, 25 °C, 24 h); 137 mM NaCl in lysis and wash buffers; Western blot with WC-1, WC-2, FRQ and FRH antibodies.

Results are given in words; binding and its absence hold for the method and conditions named. Binding seen in cells or lysates may run through a third protein. Some entries that bind do so weakly or less than the wild type. Tags and fused reporters may be left off the sequences shown.

B1: FREQUENCY (FRQ), untagged, in the WC-1^V5 strain (protein, UniProt P19970 1-989)
chain: MADSGDKSQGMRPPPFDSRGHPLPRRASPDKSITLENHRLARDTSSRVTSSSALGVTESQPQLKSSPTRRNSSGESEPTNWFNQSNRNPAAAFHDESHIMEVDPPFYQKETDSSNEESRYPPGRNPVHPPGGVQLPGFRPVAAHSSAADDYRSVIDDLTVENKRLKEELKRYKQFGSDVMRKEKLFEIKVHGLPRRKKRELEATLRDFAASLGDSSESTSQRRKTGRHGTAVHSSGVSLSKHDSSSSSRSRPVDSAYNSMSTGRSSHAPHSSGPSLGRPSLTRAKSVGTQKVENYLRDTPDGLLPHHIVMTDKEKKKLVVRRLEQLFTGKISGRNMQRNQSMPSMDAPLAPEGTNMAPPRPPPEGLREACIQLQDGDNPRKNRSSKDNGSASNSGGDQTELGGTGTGSGDGSGSGGRTGNNTSPPGAIAPDQRPTRPRDLDPDRVQIPSENMDYIRHLGLVSPEFLQGSRTSYQDVAPDAEGWVYLNLLCNLAQLHMVNVTPSFIRQAVSEKSTKFQLSADGRKIRWRGGTDGTKFSSDSSEDKSQQSPMTEDTEDGSDKNGRRKKRKTQQASSEIGRFGPSRSPSDTFHYKPMFVHRNSSSIETSLEESMSQGSEDAVDESNMGNSKWDFSGSGTTQQRRKRRYDGAIVYYTGAPFCTDLSGDPGDMSPTAQMTAGREVEGSGSGDEVEHVLQRTLSGSSLPIRPLSDDRARVAEVLDFDPGNPPELVADDGSSPNDEDFVFPWCEDPAKVRIQPIAKEVMEPSGLGGVLPDDHFVMLVTTRRVVRPILQRQLSRSTTSEDTAEFIAERLAAIRTSSPLPPRSHRLTVAPLQVEYVSGQFRRLNPAPLPPPAIFYPPFSTDSSWDDGDDLASDDEEVEEVEEDSYSEGQISRRANPHFSDNNTYMRKDDLAFDTETDVRMDSDDNRLSDSGHNMRAMMPRAEAVDGDDSPLAAVTGKEVDMLHTGSSVATAGGAESGYSSSMEDVSSS
In the case of B1, the binding entry in assay [1] is given as “no binding (condition: with 500 mM or 1000 mM NaCl)”; in assay [2], “binds”.
